Measurements reported in the supplement of paper PMC12217912.
The list shows a part of the results. Sequences were assembled here from the parent chain. Inactive controls read about 0.05.

B1: TEV protease; numbered along this chain (parent)
chain: MGESLFKGPRDYNPISSSICHLTNESDGHTTSLYGIGFGPFIITNKHLFRRNNGTLVVQSLHGVFKVKDTTTLQQHLVDGRDMIIIRMPKDFPPFPQKLKFREPQREERICLVTTNFQTKSMSSMVSDTSCTFPSGDGIFWKHWIQTKDGQCGSPLVSTRDGFIVGIHSASNFTNTNNYFTSVPKNFMELLTNQEAQQWVSGWRLNADSVLWGGHKVFMVKPEEPFQPVKEATQL

Variants of: B1
Experiment: raw area under fraction-flipped curve 0-4 h after induction (AUC4h, not background-subtracted), DNA-recorder readout of cleavage of the substrate (dimensionless); higher = more cleavage of the substrate by the protease variant
Settings: temperature: 34 °C; time window: 0-4 h after rhamnose induction
Procedure: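 In vivo DNA recorder in E. coli TOP10(DE3) ΔrhaA at 34 °C. Each TEVp single-site mutant (parent TEVp 0) is paired with a single-site variant of the 7-mer TEVs (canonical ENLYFQ|S). The substrate sits between flexible linkers in a Bxb1-sfGFP-TEVs-SsrA fusion, so cleavage stabilises Bxb1 and speeds flipping of a recombination array, read by NGS. The value is the raw area under the fraction-flipped curve over 0-4 h after rhamnose induction (AUC4h), with ≥20 reads per time point. It is not background-subtracted; inactive controls average about 0.047.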
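Further: Bxb1 expression induced with 0.2% (w/v) L-rhamnose at OD600 near 0.5, cultures sampled hourly, flipped fraction per protease–substrate barcode pair counted by paired-end Illumina sequencing.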

Variant | area with substrate ENAYFQS | area with substrate ENCYFQS | area with substrate ENDYFQS | area with substrate ENEYFQS | area with substrate ENGYFQS | area with substrate ENHYFQS | area with substrate ENPYFQS | area with substrate ENQYFQS | area with substrate ENRYFQS | area with substrate ENSYFQS | area with substrate ENTYFQS | area with substrate ENVYFQS | area with substrate ENFYFQS | area with substrate ENIYFQS | area with substrate ENKYFQS | area with substrate ENNYFQS | area with substrate ENWYFQS | area with substrate ENYYFQS | area with substrate ENMYFQS
N206S | 0.0792 | 0.0733 | 0.0577 | 0.0477 | 0.0471 | 0.057 | 0.0726 | 0.0533 | 0.0673 | 0.0598 | 0.0703 | 0.0688 | – | – | – | – | – | – | –
A196K | 0.1 | 0.0704 | 0.0648 | 0.0595 | 0.0656 | 0.0544 | 0.0522 | 0.0638 | 0.0586 | 0.0666 | 0.0558 | 0.0743 | 0.052 | 0.105 | 0.0396 | 0.0529 | 0.0094 | – | –
A196E | 0.0543 | 0.0647 | 0.0659 | 0.0666 | 0.045 | 0.0692 | 0.0657 | 0.051 | 0.0533 | 0.0632 | 0.0631 | 0.0748 | – | – | 0.0426 | 0.0581 | 0.0643 | 0.0469 | –
P225D | 0.0485 | 0.0637 | 0.0605 | 0.0435 | – | 0.0589 | – | 0.0549 | 0.0599 | 0.116 | – | 0.0773 | 0.0667 | 0.119 | – | – | – | 0.0566 | 0.0657
P225A | 0.0692 | – | 0.0714 | 0.055 | – | – | 0.0643 | 0.059 | – | 0.0535 | 0.0602 | 0.0804 | 0.0599 | – | 0.0574 | 0.071 | 0.0093 | 0.0512 | –
P225V | 0.057 | 0.0625 | 0.0635 | – | 0.059 | 0.0547 | 0.0698 | 0.0614 | 0.0423 | 0.0588 | 0.148 | 0.0715 | 0.0503 | 0.102 | – | 0.0568 | – | 0.0619 | 0.0821
W199C | 0.061 | 0.067 | 0.0492 | 0.0594 | 0.0654 | – | – | 0.0542 | 0.0536 | 0.0584 | 0.0582 | – | – | – | 0.0519 | – | – | 0.041 | –
W199L | 0.0576 | 0.0609 | 0.0746 | 0.0566 | – | 0.06 | – | 0.0617 | 0.0654 | – | 0.0465 | 0.0633 | 0.0416 | 0.0958 | 0.0728 | – | – | 0.0696 | –
W199R | 0.0874 | 0.066 | 0.0582 | 0.0767 | 0.0687 | 0.0732 | 0.0624 | 0.067 | 0.0724 | 0.0599 | 0.0573 | 0.0631 | 0.0633 | 0.0644 | 0.069 | 0.06 | – | 0.0609 | –
V220C | 0.0613 | 0.0824 | 0.055 | 0.0626 | – | 0.0275 | 0.0737 | 0.0529 | 0.0603 | 0.0544 | 0.0354 | 0.0779 | 0.0679 | 0.0942 | – | – | 0.0455 | – | 0.0809
V220D | 0.0673 | 0.0627 | – | 0.058 | 0.0641 | 0.0556 | 0.072 | 0.064 | – | 0.056 | – | 0.0842 | 0.0588 | – | 0.0493 | 0.0509 | – | – | –
V220N | 0.0547 | 0.045 | 0.0582 | 0.0764 | – | 0.0565 | – | 0.0505 | – | 0.128 | 0.0903 | 0.0762 | – | – | 0.111 | – | 0.0115 | – | –
